# Source: the supplement of paper PMC3334620
# Whole data set: some 33,000 sequences, median “E-score (-0.5 to 0.5)” near -0.012, cut for the highest 2% near 0.27. Some of the results follow.
# Target: T1, Vhr1 (UniProt P40522)
# T1 sequence: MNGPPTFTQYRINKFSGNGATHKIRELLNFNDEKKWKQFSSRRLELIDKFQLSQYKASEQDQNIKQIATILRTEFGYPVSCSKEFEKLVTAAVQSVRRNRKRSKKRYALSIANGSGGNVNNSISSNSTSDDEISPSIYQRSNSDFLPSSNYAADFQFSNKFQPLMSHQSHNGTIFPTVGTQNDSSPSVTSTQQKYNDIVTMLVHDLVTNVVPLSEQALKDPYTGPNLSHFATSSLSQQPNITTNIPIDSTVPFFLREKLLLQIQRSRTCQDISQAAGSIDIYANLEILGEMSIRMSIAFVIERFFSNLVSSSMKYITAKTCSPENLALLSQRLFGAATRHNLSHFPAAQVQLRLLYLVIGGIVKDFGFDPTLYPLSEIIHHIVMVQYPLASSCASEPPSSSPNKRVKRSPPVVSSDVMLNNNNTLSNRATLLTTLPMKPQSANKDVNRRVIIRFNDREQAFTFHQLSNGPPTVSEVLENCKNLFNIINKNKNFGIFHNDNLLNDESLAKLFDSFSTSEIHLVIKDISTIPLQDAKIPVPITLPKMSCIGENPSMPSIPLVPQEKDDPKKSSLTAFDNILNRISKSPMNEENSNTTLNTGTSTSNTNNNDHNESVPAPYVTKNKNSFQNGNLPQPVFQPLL
# Experiment: PBM E-score (8-mer binding enrichment) (E-score (-0.5 to 0.5)); higher = stronger / more preferred TF binding; most listed sequences are background and not binding sites
# Details: protein concentration: 200 nM; construct: GST-full length
# Method in brief: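 Universal all-10-mer Agilent arrays, double-stranded by primer extension on fresh or once-stripped slides, were probed with about 100-200 nM GST-tagged yeast transcription factors made by PURExpress. Fluorescent anti-GST detected bound protein, and masliner normalised the scans. E-scores from the Universal PBM Analysis Suite were given to each ungapped eight-base word pooled with its reverse complement.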
row,Sequence,PBM E-score
1,GGATTCGA,-0.0664
2,AAGACTGT,-0.154
3,GGGACCGA,0.00187
4,GGTATTAC,0.139
5,CGTACTGC,0.0223
6,AATACCCA,0.0561
7,AAACAAGG,-0.191
8,GTAAGACA,-0.102
9,TATTTAAA,0.0675
10,AATTGCAC,0.128
11,AGTTCCAA,0.00985
12,AGGGGCAA,-0.21
13,AAGTGATG,0.0794
14,AGTGTTGA,-0.0299
15,CATTGGGG,-0.117
16,CAGGGTTC,-0.0621
17,ATCCATTC,-0.0383
18,AAAGCGAA,0.00124
19,AGTCTAGG,-0.134
20,CTAGCGTA,-0.231
21,AGACTAGC,-0.204
22,AAGTTGCT,-0.197
23,GTACCTAC,-0.00398
24,ACCTGTTA,-0.149
25,CTCACCGA,0.183

row,Sequence,PBM E-score
1,ACTTTTGC,-0.115
2,GGACACTA,-0.0253
3,ACACCCAA,0.197
4,AGTATCGA,0.147
5,AGGCATTG,-0.0373
6,CGACAGCG,-0.0743
7,TACGAATA,0.00744
8,ACAGGACA,0.129
9,CGCACTGA,0.0104
10,GCTAAGGA,-0.323
11,ACCCGCCG,0.197
12,AACTTCTG,-0.128
13,CCGCGTAC,-0.0241
14,ACCGACGC,-0.0561
15,CCAAGGGA,-0.197
16,CACGGCGA,0.158
17,CCTTCACA,-0.163
18,CTGACGGA,-0.176
19,ACACCAAG,0.0521
20,AATCGAGC,0.0319
21,GGTGTTCA,-0.0437
22,AGCAGCAT,-0.0558
23,CGAGCTGA,0.173
24,AGGTGACC,0.0821
25,ACTACTCC,0.206

row,Sequence,PBM E-score
1,GATGTATA,0.242
2,TCCTGGAA,-0.241
3,CCCACACC,0.12
4,CTAGTAAA,0.0708
5,ACAGGCGA,-0.0375
6,CGACTGCC,0.0648
7,ATTAAACG,-0.0977
8,ACAGCTCG,-0.0608
9,GACCTTCA,-0.111
10,AAGGACGT,-0.109
11,TATGGGGA,0.123
12,ACATGCCG,-0.0324
13,TAGCGCTA,-0.289
14,ATCGGTAC,0.102
15,ATCATAGA,0.222
16,CTATCGTC,-0.066
17,CTGGCTTC,-0.149
18,ACGAAAAC,-0.00389
19,AAAGTCGT,-0.0793
20,AAGCGGCT,-0.0228
21,ATCCCAAC,0.0332
22,CAAAACTG,-0.214
23,CCTTTGAC,-0.0472
24,CTCTTGGC,-0.276
25,CGCGTCAC,-0.0391

row,Sequence,PBM E-score
1,ATTTCAGG,0.0643
2,GCCATTGA,0.067
3,CCAACTTA,0.0119
4,GAAGCTGC,-0.0702
5,ATGTTGGC,-0.00473
6,AAGTGACC,-0.00246
7,CGAAGGCA,-0.185
8,AGAATGCG,-0.0687
9,AGCAGCCG,0.079
10,TCAGCCAA,0.0832
11,ATCTCGCA,-0.0448
12,AAGACTAA,0.116
13,ATGTCACA,0.131
14,TGATGGAA,0.0625
15,AATGTGAG,-0.0416
16,GTTTAAAA,-0.282
17,CGAAGACA,0.0682
18,AGGCACTG,-0.0805
19,CCTGCAAG,-0.245
20,TGACGGAA,-0.108
21,AGAGCCCT,-0.165
22,AACGCGCT,0.0547
23,CCACTGGC,-0.0105
24,GCAAATTA,-0.0987
25,CGGCGAGC,0.181

row,Sequence,PBM E-score
1,GCGATAAA,-0.00825
2,ACTGGGAG,-0.0384
3,AGCGGGGG,-0.0655
4,CAGGCGAA,-0.0345
5,AATAGTAA,0.0654
6,AAGTTGCC,-0.0563
7,ATGGCCCG,-0.0188
8,AAGGCTCA,-0.0408
9,TACTCTAA,-0.0831
10,CATTCGTA,-0.0463
11,AGGGGTCA,0.168
12,ACATCATG,0.211
13,GCTGACAC,0.174
14,CGCTTCAA,-0.169
15,CCTTTCGA,-0.112
16,GCGCTTTA,-0.241
17,AGTTCTTC,0.0538
18,ACTACACG,0.221
19,ATCTTTTG,-0.145
20,AGTTACTA,0.121
21,CGATCAAG,-0.206
22,GACTAGGA,0.135
23,CTGGCCTA,-0.166
24,GAGCAACA,-0.165
25,CACGGCTA,-0.116

row,Sequence,PBM E-score
1,CTATGACC,0.0448
2,TCGGACCA,-0.0894
3,AACTATCG,-0.00583
4,GCGAGATA,0.0156
5,ACGAGAGC,-0.0151
6,ACTAGCTA,0.115
7,AGGGCTAA,-0.206
8,GCGTCGTA,0.0112
9,CCTGCAGA,0.127
10,AACCGCCC,0.0139
11,CACAATGC,0.132
12,GTTTGTAA,-0.116
13,CCCAGATC,-0.129
14,ACATTCTG,-0.0402
15,CAAGAGTC,0.296
16,GCATAACC,-0.129
17,ATACCCGG,0.0288
18,ATGGAAAC,0.0483
19,CACTGGGG,-0.154
20,CAGACAAA,-0.0629
21,GACTGCCC,0.00579
22,GATGGAGC,-0.00182
23,AAGGCTAA,-0.104
24,GAAAGCAC,0.0106
25,ATGAATCG,0.214

row,Sequence,PBM E-score
1,GCAGTGGA,0.119
2,ACACTTAG,0.00688
3,AGCGGGAC,-0.019
4,GATTACGA,0.0511
5,AAAGCGTT,-0.214
6,CCCGTAGG,-0.157
7,CGAGTTAG,0.064
8,GACAGGGA,0.0588
9,CGCTCCCA,-0.111
10,CCTAACTA,-0.0949
11,CTACACAA,0.139
12,GGCACCCA,0.0262
13,ATAGCCGG,0.00431
14,CCTCCATA,-0.18
15,ACGCAGGC,0.0752
16,AAGTCCTG,0.0661
17,TAAGGTGA,0.0626
18,CGAAGTAG,-0.054
19,CGGTACCA,-0.0508
20,CTTTACGA,-0.236
21,ATATTAAA,0.122
22,AAAAAGGA,-0.155
